Measured values from the supplement of paper PMC10126150.
Sequences with one replicate were seen in a single cluster, so their values are uncertain.

tested on: ATP; experiment: switch fluorescence ratio, 500 uM ATP over buffer (Cy3 cluster intensity, sum of 5 cycles each) (fold (ratio)); higher = stronger signal-on switching upon ATP binding; sequences stand for … in TCGTCGGCAGCGTCAGATGTGTATAAGAGACAGTTTTTTTTTTTTTTTTTTTTTTTTT…TC; details: aptamer strand: ATP DNA aptamer (quencher-CACCTGGGGGAGTATTGCGGAGGAAGG + anchor), 100 nM annealed; ATP concentration: 500 uM; one replicate
Procedure, shortened: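 The quencher-labelled ATP aptamer, at 100 nM, was annealed to Cy3-labelled switching-strand clusters on a modified Illumina MiSeq flow-cell. The clusters were imaged in selection buffer, then after 15 min with 500 uM ATP at 22 °C, and this buffer/ATP cycle ran five times with NaOH stripping and re-annealing between runs. Per-cluster fluorescence ratios, summed target-cycle over summed buffer-cycle Cy3 intensity, were averaged per switch-domain sequence. Clusters outside 100-1000 RFU were excluded.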
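Note: ATP exposure 15 min at 22 °C before imaging.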

Sequence | switch fluorescence ratio
CGAAGAGAGA | 1.01
CGAAGGGATT | 1.09
CGAAGGGCGT | 0.997
CGAAGTCCAA | 1.25
CGAAGTCCGG | 1
CGAATACAGC | 0.984
CGAATAGAGT | 1.03
CGAATCAAGT | 1.03
CGAATCCAAA | 1.05
CGAATCTGG | 0.956
CGAATGGAAG | 0.971
CGAATGGTTA | 1.04
CGAATGTTAA | 0.979
CGAATTAACG | 0.985
CGAATTGGCT | 1.07
CGACAAACGT | 1.25
CGACAGAATT | 0.974
CGACATAAGC | 1.19
CGACCAATG | 1.08
CGACCACC | 1.25
CGACCATTG | 0.992
CGACCCCCGA | 1.35
CGACCCGTTC | 1.06
CGACGACGTC | 1.05
CGACGCAGTT | 4.89
CGACGCCTTA | 1.69

Sequence | switch fluorescence ratio
CGACGCGTAG | 2.1
CGACGGGGGC | 1.08
CGACGTAACA | 1.13
CGACGTCTGG | 1.02
CGACTAAGAT | 1.03
CGACTAGGGT | 0.973
CGACTATAAT | 1.08
CGACTATTTA | 0.987
CGACTCGGGC | 1.06
CGACTCTCTC | 1.06
CGACTCTGCG | 1.08
CGACTGTCGG | 0.971
CGACTTCAGG | 1.03
CGACTTGTAG | 1.02
CGACTTGTGA | 1
CGACTTGTGT | 1.02
CGACTTTTGG | 0.925
CGAGAAAGGA | 0.98
CGAGAAGCG | 0.994
CGAGAAGGAG | 0.964
CGAGAAGGTC | 0.995
CGAGACAACG | 0.937
CGAGACCCGT | 0.955
CGAGACGCCA | 1.13
CGAGACTAAG | 0.99
CGAGAGAGCA | 1.03

Sequence | switch fluorescence ratio
CGAGAGGTAG | 0.967
CGAGAGTCGG | 0.91
CGAGATACTG | 1.13
CGAGCACACT | 2.27
CGAGCACCAG | 1.19
CGAGCACGAA | 0.978
CGAGCCCAGA | 1.49
CGAGCGGCA | 1.04
CGAGCGTAGA | 1.04
CGAGCTATAA | 5.15
CGAGCTCGTC | 1.01
CGAGGACTCA | 1.04
CGAGGAGTAT | 0.983
CGAGGCATTT | 2.17
CGAGGCGAAT | 1.45
CGAGGCGACA | 1.18
CGAGGCTAG | 1.13
CGAGGCTTCA | 1.08
CGAGGGAGA | 0.981
CGAGGGCCGT | 1.03
CGAGGGGCGG | 0.952
CGAGGGGT | 1.02
CGAGGGTAG | 1.03
CGAGGTACAG | 1.03
CGAGGTCAAA | 1.21
CGAGGTCCTG | 0.951

Sequence | switch fluorescence ratio
CGAGTAACT | 1.02
CGAGTAGCAT | 1.06
CGAGTCATTT | 1.01
CGAGTCCAAT | 0.979
CGAGTGATTT | 1.57
CGAGTGTTTC | 0.992
CGAGTTACAA | 1.05
CGAGTTCCGC | 1.13
CGAGTTTAGC | 0.952
CGAGTTTGAT | 1.03
CGATAACAAC | 1.08
CGATAAGGGT | 1.03
CGATAATACA | 1.03
CGATAATTAG | 1.02
CGATACCGTT | 0.988
CGATACGTTA | 1.1
CGATATGTGC | 1.02
CGATCAGACG | 1.07
CGATCGTTTT | 0.97
CGATCTGCAC | 1.55
CGATCTTTGG | 1.04
CGATGAAAAT | 1
CGATGAATCG | 0.994
CGATGAGCCG | 0.969
CGATGGGGAG | 0.962
CGATGGTCAG | 1.01

Sequence | switch fluorescence ratio
CGATGTATGA | 1.02
CGATGTCTAC | 1.47
CGATGTTTCA | 1.03
CGATTAAGAC | 1.14
CGATTAGGG | 0.987
CGATTATAGT | 0.996
CGATTATGGA | 1.03
CGATTATGT | 1.02
CGATTCATAC | 3.56
CGATTCCTAA | 0.994
CGATTCTTCT | 0.996
CGATTGCGGG | 1.02
CGATTGGAGG | 0.98
CGATTGGGG | 0.998
CGATTTAAAT | 0.997
CGATTTGTTC | 0.995
CGCAAATTTT | 1.12
CGCAACTAAT | 1.73
CGCAAGAGGC | 2.18
CGCAATGTGG | 1.93
CGCACAGTAT | 1.11
CGCACGCCGC | 1.23
CGCACGGAGT | 0.977
CGCACGGTAC | 2.83
CGCACGTAGC | 1.14
CGCACGTTGG | 0.964

Sequence | switch fluorescence ratio
CGCACTAAAA | 1.87
CGCACTAAGG | 1.14
CGCACTGGTT | 1.04
CGCACTTGAC | 1.83
CGCAGCTGAT | 1.91
CGCAGGAATA | 1.57
CGCAGGTATT | 1.07
CGCAGTTAAC | 2.2
CGCAGTTGCT | 1.23
CGCATATGGG | 1.06
CGCATCGAAT | 1.04
CGCATCGATT | 1.04
CGCATGCCTG | 1.21
CGCATGCTTT | 1.15
CGCCAATCGA | 1.19
CGCCAGAGGC | 1.05
CGCCATCTTC | 1.01
CGCCCCA | 1.42
CGCCCCGCCG | 0.944
CGCCCCTTTG | 1.12
CGCCCGCTCA | 1.39
CGCCCGTTG | 1.03
CGCCGCTCAT | 1.1
CGCCGGCAAA | 1.05
CGCCGGGTAC | 2.51
CGCCGGTA | 1.01

Sequence | switch fluorescence ratio
CGCCTAATTA | 1.03
CGCCTCAGGA | 1.06
CGCCTCATTC | 1.29
CGCCTCCATA | 1.09
CGCCTGAACC | 1.08
CGCCTTTAAG | 1
CGCCTTTCGA | 1.06
CGCCTTTTGG | 1
CGCGAAGAAT | 0.977
CGCGAATTAT | 0.998
CGCGACATT | 1
CGCGAGGCAG | 1.04
CGCGATAGTC | 3.03
CGCGATCCCG | 1.08
CGCGCAGCGA | 1.04
CGCGCCCGGA | 1.04
CGCGCGAGAT | 0.992
CGCGCTCCCA | 3.79
CGCGGATACT | 5.32
CGCGGATCGA | 0.973
CGCGGATGTT | 0.996
CGCGGCCATG | 0.999
CGCGGGTTTC | 1.03
CGCGGTCGCA | 1.03
CGCGGTTCG | 1.03
CGCGTATGG | 1.06

Sequence | switch fluorescence ratio
CGCGTCACGT | 1.03
CGCGTGGCTT | 1.02
CGCGTGTACA | 1.04
CGCTAAAGTT | 0.992
CGCTACTTTC | 1.29
CGCTAGTAGC | 1.05
CGCTATCAAA | 1.04
CGCTATCGCC | 1.42
CGCTCAACGC | 1.04
CGCTCGACTT | 1.05
CGCTCTTGCC | 1
CGCTGAATAA | 1.19
CGCTGATTGT | 1.01
CGCTGGGCAT | 0.985
CGCTGGGGCG | 0.97
CGCTGGGTTG | 1.03
CGCTGGTACC | 1.09
CGCTTCGATT | 0.967
CGCTTGTTTT | 0.956
